# Test results: the supplement of paper PMC3334620
# The full ranking holds about 33,000 sequences; the median of “E-score (-0.5 to 0.5)” is about -0.017, and the highest 2% start at about 0.3. This is one part of the list.
# Molecular target: T1, Sut1 (UniProt P53032)
# T1 sequence: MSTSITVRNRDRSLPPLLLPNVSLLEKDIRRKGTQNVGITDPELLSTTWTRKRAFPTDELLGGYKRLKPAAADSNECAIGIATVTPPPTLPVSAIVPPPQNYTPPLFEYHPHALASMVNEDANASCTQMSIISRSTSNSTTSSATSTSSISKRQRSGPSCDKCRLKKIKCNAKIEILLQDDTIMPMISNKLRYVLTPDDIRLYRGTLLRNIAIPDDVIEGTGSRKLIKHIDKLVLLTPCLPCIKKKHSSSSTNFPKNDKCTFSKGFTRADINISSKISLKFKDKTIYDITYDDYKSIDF
# Test: PBM E-score (8-mer binding enrichment) (E-score (-0.5 to 0.5)); higher = stronger / more preferred TF binding; most listed sequences are background and not binding sites
# Settings: protein concentration: 200 nM; construct: GST-full length
# Outline: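 E-scores (a modified Wilcoxon-Mann-Whitney statistic) were assigned by the Universal PBM Analysis Suite to every ungapped eight-base word pooled with its reverse complement. The input came from universal all-10-mer Agilent arrays made double-stranded by primer extension and probed with GST-tagged yeast transcription factors at about 100-200 nM. Fluorescent anti-GST detected bound protein, and masliner normalised the scans.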
row,Sequence,PBM E-score
1,ATCCAAAT,0.0947
2,TGACTCAA,-0.108
3,ATTCAAGA,0.0929
4,GACGAACA,0.0226
5,AGAGAGCT,-0.212
6,CCAGGCCG,-0.135
7,CGCACATA,-0.189
8,CAAAAGGA,0.0153
9,AGTTGGGG,-0.00455
10,GTCCTCAC,-0.0725
11,AACGGCTA,-0.0515
12,ATAGGCCC,-0.29
13,AAGCAATA,0.0993
14,AAGTACAC,0.194
15,CTCGTCTA,-0.0182
16,CGCTAGTC,-0.189
17,GGCAGAAA,0.0918
18,ATGGAGTA,0.179
19,AGGAGAAC,-0.0513
20,CGTTGTAC,0.0351
21,ATCCAGCA,-0.081
22,GCGTATAC,0.0052
23,GGTCAGCA,0.0461
24,CCGCATAC,-0.0248
25,ATCCCATG,-0.214

row,Sequence,PBM E-score
1,ATGTGCTC,-0.0139
2,GACGCGGA,0.117
3,CAACGTCG,-0.102
4,CTCAAGGC,-0.0533
5,ATACACTC,0.257
6,GTGAGGGA,-0.261
7,TAAGCACA,0.235
8,GTCCTCAA,0.0264
9,AATTCTGA,0.129
10,CGGGTCCC,-0.356
11,GGTTTGGA,0.00586
12,ACAGCCGG,0.0561
13,ACCAAGCA,-0.0291
14,CATATTAA,0.183
15,CCATTTTC,0.0901
16,ACCGCCTA,-0.167
17,ACAGCACC,-0.121
18,AGTTATGC,0.186
19,ACTGTTAC,-0.104
20,AAGCTCGA,0.0269
21,ATGTCTGA,-0.135
22,CAGTGAAA,0.138
23,AGTTATAA,0.155
24,ATGTCGTG,-0.183
25,CGTACAAG,-0.0978

row,Sequence,PBM E-score
1,CGCATGTA,-0.208
2,CTAATTCA,0.0247
3,CGAATCCG,0.184
4,CAGATATA,0.0963
5,CACGCTCC,-0.281
6,CCCCCCCG,-0.43
7,ATTCGCGA,-0.0269
8,ATAGTCAT,0.0383
9,AAAAGCCT,-0.134
10,ATTCAACA,0.162
11,AGCCTTTC,-0.197
12,GAAGTCAA,0.0107
13,AATCCTTA,0.0537
14,CCTTTAAC,0.174
15,ATACACTA,0.167
16,AGCCTCCC,-0.215
17,CCCGGGCC,0.026
18,GTGTATAA,-0.112
19,GCCCTCGC,-0.292
20,ATGTGGCG,-0.155
21,CACACTCA,0.138
22,AATAGGGT,0.178
23,CCGACGCC,0.0242
24,CCGACTGA,0.122
25,CCTGATTA,0.144

row,Sequence,PBM E-score
1,AGATCGGA,0.348
2,ACAGTACA,0.0765
3,AATTGTCC,0.101
4,ACACAAAG,0.0367
5,CCGCACAC,-0.238
6,CAAATCAA,0.198
7,TCGAGCGA,-0.0279
8,CAAGTATG,0.0612
9,GAATAGCA,0.103
10,GTAGTTTA,0.239
11,CCTTTTTC,0.0433
12,AGACAGTG,-0.124
13,AGGGAATG,-0.153
14,CCTGTCGC,-0.27
15,AGAATTCT,0.15
16,ATGTCTGG,0.0121
17,GAAATCTA,0.191
18,AGCACAGA,0.125
19,AGACTTTA,-0.111
20,ACCTAACA,0.162
21,CAAGGACG,-0.156
22,ACTTGAGG,-0.0146
23,GCTGCACA,-0.0918
24,ACCCCGTA,0.137
25,AAAAAAAC,0.159

row,Sequence,PBM E-score
1,GAAACGAC,0.0454
2,CCCCTGCG,-0.407
3,GACTGTGC,-0.072
4,CCGACCCA,0.0491
5,CGCCGGCA,0.102
6,ACGGGCCA,-0.0563
7,CAAAGGCC,-0.0635
8,ACTGAACG,-0.193
9,GTGACAGA,-0.121
10,CTTGAGGC,-0.0356
11,AACAGTAC,0.0343
12,ACGCTGGC,-0.143
13,AAGTACGC,-0.0232
14,ATTGTACA,-0.00023
15,TTATGCAA,-0.0123
16,CCATATCG,0.00133
17,ACTAAGCC,0.00053
18,TAGATTGA,0.0402
19,CCTTATAG,0.0911
20,ACCCTTCA,-0.0519
21,TCTCCCCA,-0.212
22,CAATAACC,0.0745
23,TAAGGGTA,-0.198
24,GGCCGGTA,0.0132
25,ATGCCGGA,0.325

row,Sequence,PBM E-score
1,GAAACAGA,0.0594
2,TACCCACA,-0.0829
3,CTGCCGGC,-0.0532
4,GTGGAACA,-0.0308
5,GGGGTCAC,-0.251
6,CAAGCGGG,-0.197
7,AACTACTT,0.0474
8,CAACGAAC,-0.0827
9,AGAGGAGA,-0.248
10,AGAAATTA,0.335
11,CACAGGTA,-0.1
12,CTACCTAC,0.107
13,ACGTGGGC,-0.221
14,GCAGGCTA,-0.187
15,CTGCCGGA,0.0897
16,CACCTTGG,-0.0353
17,GTGTGGCA,-0.133
18,ATCTTCAG,0.162
19,ATTTCCGG,0.325
20,AAATTGGT,0.206
21,ATCTGTCA,0.158
22,AACCGAAT,0.099
23,GCAAGTAA,0.121
24,CTCGATTC,0.0392
25,ATTACGCC,-0.0733

row,Sequence,PBM E-score
1,ATGGCTTC,0.101
2,ACTGAGAC,0.00875
3,CTGCGAGC,-0.126
4,CGGGTGGA,-0.227
5,TCGGTTAA,0.183
6,AAATATCC,0.161
7,ACGCCGAC,-0.0103
8,ATGCCGAG,-0.0383
9,CCGGCTCA,0.165
10,ACAGACTA,-0.118
11,ACCAGAAG,-0.129
12,ATACCTTC,0.075
13,TGGTTACA,-0.0843
14,ACCTTCAG,-0.0815
15,GTAAATTA,0.213
16,CAGGCCGC,-0.289
17,ATGCAATC,0.102
18,AAGGCGCG,-0.182
19,ATTCCAAT,0.161
20,AAACCCGC,-0.0276
21,CACACGAA,0.0539
22,CTTCTTTA,0.0979
